In PubChem BioAssay AID686971 (National Center for Advancing Translational Sciences (NCATS), 2013):
Out of some 360,000 compounds screened, about 7,500 (2.1%) were called active. Inconclusive results, whose numbers are uncertain, are shown with a selection of clear calls. Calls come from the whole dose curve; as a rule, active = well fitted cell-killing curve with a large enough effect; inconclusive = small, poorly fitted or top-dose-only effect, or effect the other way, or another doubt; inactive = no such curve, though single readings can be large or run the other way. Potencies of inconclusive entries are left out as doubtful fits.

experiment: qHTS for induction of synthetic lethality in tumor cells producing 2HG: qHTS for the HT-1080-IDH1KD cell line; conditions: HT-1080 IDH1 knockdown viability, ATP luminescence, 48 h; activity, negative = toxicity: at 46.1 µM (top of the series) unless noted;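 for activity, negative = toxicity: 0% = DMSO wells and -100% = cell-free medium wells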
Summary of the method: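 Assay cells: HT-1080 with IDH1 knockdown, 750 per well, RPMI/5% FBS. Exposure: 48 h at 37 °C following 2 h pre-incubation. Read: CellTiter-Glo luminescence; fitted concentration-response, curve class assigned.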
Potency is the fitted concentration of half-maximal effect; tags give direction and shape of the fitted curve.

| SMILES | Potency | activity, negative = toxicity |
| --- | --- | --- |
| N#Cc1nc(COc2ccc(Cl)cc2)oc1NCc1ccc2c(c1)OCO2 | inconclusive [cytotoxic, single point] | – |
| CCc1cc(-c2[nH]ncc2-c2ccc(OC)cc2)c(O)cc1O | inconclusive [cytotoxic, single point] | – |
| CCOC(=O)C1(CCc2ccccc2)CCN(C(=O)[C@@H]2C[C@@H](C)NC(=S)N2)CC1 | inactive | – |
| C/C(=N/Nc1nc(-c2ccccc2)cc(-c2ccc(F)cc2)n1)c1cccc(N)c1 | inconclusive [cytotoxic, single point] | – |
| N#CC1=C(N)NC(SCc2ccc(F)cc2)=C(C#N)C12CCCCC2 | active: 23.1 µM | – |
| N=c1c2c(ncn1CCCO)Oc1ccc3ccccc3c1C2c1ccccc1 (stereo unspecified) | inconclusive [cytotoxic, single point] | – |
| Cc1ccc(CCC(=O)Nc2ncc(Cc3cc(Cl)ccc3Cl)s2)o1 | active: 1.16 µM | – |
| Cc1ccc2occ(C(c3nnnn3C3CCCC3)N3CCN(C(=O)c4ccco4)CC3)c(=O)c2c1 (stereo unspecified) | inconclusive [cytotoxic, single point] | – |
| Nc1ncccc1OCc1ccc(Cl)c(Cl)c1 | inactive | – |
| COc1ccc(Cc2c(-c3ccccc3)nc3ccc(Br)cn23)c(C)c1 | inconclusive [cytotoxic, single point] | – |
| CCOC(=O)C(NC(=O)c1ccc(OC)cc1)(N1CCOCC1)C(F)(F)F (stereo unspecified) | inconclusive [rising, full curve, poor fit] | – |
| CC(C)(C)c1ccc(/C=C2\SC(=O)N(CCNC(=O)c3cccc(S(=O)(=O)N4CCOCC4)c3)C2=O)cc1 | inactive | – |
| Cc1ccc(Cn2ccc(NC(=O)CCSc3nc(-c4ccco4)cc(C(F)(F)F)n3)n2)cc1 | inconclusive [cytotoxic, single point] | – |
| Cc1ccc(N2NC3(CCN(C(N)=O)CC3)NC2=O)cc1 | active: 6.51 µM | – |
| C[n+]1cc2c3c(ccc2c2ccc4cc5c(cc4c21)OCO5)OCO3 | active: 1.41 µM | – |
| CCCOc1ccc(C(=O)Nc2ccc3c(c2)OCO3)cc1 | inconclusive [cytotoxic, partial curve, poor fit] | – |
| Cc1ccc2c(c1)[C@H]1[C@H](CO2)[C@H](c2ccccc2)[C@]2(C)C(=O)Nc3ccccc3C(=O)N12 | active: 6.51 µM | – |
| CC(C)=NNc1ncnc2nc[nH]c12 | inconclusive [cytotoxic, partial curve] | – |
| Cc1cccc(NS(=O)(=O)c2cc(C(=O)N3CCc4ccccc4C3)ccc2Cl)c1C | inconclusive [cytotoxic, single point] | – |
| C[C@H](CO)N1C[C@H](C)[C@@H](CN(C)C(=O)NC2CCCCC2)Oc2c(NC(=O)Nc3ccc(C(F)(F)F)cc3)cccc2C1=O | inconclusive [cytotoxic, single point] | – |
| CCCCNC(=O)C(=O)Nc1cc2c3c(c1)CCC(=O)N3CCC2 | inactive | – |
| Cc1nc(-c2ccc(Cl)cc2)sc1C(=O)NN | active: 10.3 µM | – |
| COC(=O)[C@]12CCCCC=C1N(CCC1=CCCCC1)C(=O)[C@H](CC(=O)N1CCCC1)C2 | inactive | – |
| O=C(N/N=C/c1ccco1)c1cc(-c2ccc(Cl)cc2)n[nH]1 | inactive | – |

| SMILES | Potency | activity, negative = toxicity |
| --- | --- | --- |
| CCOc1ccccc1CNc1ccc(O)cc1 | inconclusive [cytotoxic, single point] | – |
| O=C(NNc1nc2ccc(F)cc2s1)c1cccc(F)c1 | active: 14.6 µM | – |
| O=C(Nc1nnc(-c2ccco2)o1)c1ccc([N+](=O)[O-])s1 | inconclusive [cytotoxic, partial curve] | – |
| CCOC(=O)CSc1nc(N)c(C(=O)Nc2ccc(N(C)C)cc2)s1 | inconclusive [cytotoxic, single point] | – |
| O=C(NC1CCCCC1)c1nc(C2CCNCC2)oc1-c1ccccc1 | inconclusive [cytotoxic, single point] | – |
| Cc1cc(C)cc(NC(=O)c2ccc([N+](=O)[O-])o2)c1 | active: 16.4 µM | – |
| Cn1c(NC(=O)c2ccccc2)c(-c2cccs2)c(=O)c2ccccc21 | inconclusive [cytotoxic, single point] | – |
| COc1ccccc1NC(=O)Nc1cc(NC(=O)Nc2ccccc2OC)c(C)nc1C | active: 16.4 µM | – |
| CC(=O)NC1=NN(C(C)=O)C(C)(c2ccc(C)o2)S1 (stereo unspecified) | inactive | – |
| CCCCN(C=O)c1c(CC)nc2ccc(C(=O)Nc3cc(-c4ccccc4)ccc3OC)cn12 | inconclusive [cytotoxic, single point] | – |
| CC(=O)Nc1ccc(NC(=O)/C(Cl)=C/c2ccccc2)cc1 | inactive | – |
| Clc1cccc(Cc2c(C3CCCCC3)nc3ccc(Cl)cn23)c1 | inconclusive [cytotoxic, single point] | – |
| COc1cc(C=NNc2ccccc2)ccc1OC(=O)c1ccccc1 | inconclusive [cytotoxic, partial curve] | – |
| COc1ccc(OC)c(N2C(=O)CC(Cc3cc(C)cc(C)c3)C2=O)c1 (stereo unspecified) | inconclusive [cytotoxic, partial curve, poor fit] | – |
| Cc1csc2c(N3CCN(C(=O)c4ccc(C(C)(C)C)cc4)CC3)ncnc12 | inconclusive [cytotoxic, single point] | – |
| CCc1nnc(NC(=O)CSc2nnc3c(C)cc4c(C)ccc(C)c4n23)s1 | active: 6.51 µM | – |
| Cc1cc(N/N=C/c2cccc(F)c2)nc(NCc2ccccc2)n1 | active: 16.4 µM | – |
| O=C(/C=C/c1ccc(Cl)c([N+](=O)[O-])c1)c1ccc(O)cc1 | active: 11.6 µM | – |
| c1ccc(OCCn2cnc3ccccc32)cc1 | inactive | – |
| NCC(c1ccccc1)c1c[nH]c2ccccc12 (stereo unspecified) | inconclusive [cytotoxic, partial curve] | – |
| CCCCCCCCN1C(=O)[C@H](CC(=O)NCCCCc2ccccc2)C[C@@]2(C(=O)OCC)CCCC=C12 | inconclusive [cytotoxic, single point] | – |
| COc1cc(CNC2CCCC2)c(Br)cc1OCc1ccccc1 | inconclusive [cytotoxic, single point] | – |
| CC(C)c1ccc(OCc2ccc(C(=O)N3CCN(c4ccccn4)CC3)cc2)cc1 | inconclusive [cytotoxic, single point] | – |
| COc1ccc2sc(-c3ccc(N(C)C)cc3)c(C#CCCO)c2c1 | inconclusive [cytotoxic, single point] | – |

| SMILES | Potency | activity, negative = toxicity |
| --- | --- | --- |
| CCOc1ccccc1NC(=O)CSc1nc2nc(-c3cccs3)cc(C(F)(F)F)c2c(=O)[nH]1 | inconclusive [cytotoxic, partial curve] | – |
| COc1cccc(C(=O)NCCS(=O)(=O)N(C)Cc2ccccc2)c1 | inactive | – |
| COc1ccc(C2=C(Nc3ccccc3)c3ccccc3C2=O)cc1 | inactive | – |
| O=C(Nc1ccc2c(c1)OCCO2)c1[nH]c(C(F)(F)F)nc1-c1ccccc1 | inconclusive [cytotoxic, single point] | – |
| Cc1cccc(NC(=O)C2CCN(S(=O)(=O)c3ccc4c(c3)OCCCO4)CC2)n1 | – | inconclusive: -3.21% [cytotoxic] |
| CCCC(=O)N(c1ccc2oc(=O)sc2c1)S(=O)(=O)c1cccs1 | inactive | – |
| CCCc1oc(C(=O)O)cc1CN | inconclusive [rising, single point] | – |
| CC(=O)Nc1cccc(C(=O)Nc2ccccc2N2CCOCC2)c1 | inconclusive [cytotoxic, single point] | – |
| CN1C(=O)/C(=C/c2ccccc2Cl)Sc2ccc(C(=O)NCc3cccnc3)cc21 | inconclusive [cytotoxic, single point] | – |
| CCc1nc2ccc(C(=O)NCC3CCCCC3)cn2c1N(C)Cc1ccc(OC)cc1 | inconclusive [cytotoxic, single point] | – |
| CCc1ccc(NC(=O)CSc2nc3ccccc3c(=O)n2CCCC(=O)NCCCN2CCOCC2)cc1 | active: 18.4 µM | – |
| COc1ccc2cc(CN(CCCN3CCOCC3)Cc3nnnn3C3CCCC3)c(=O)[nH]c2c1 | inactive | – |
| CSc1cccc(NC(=S)N(CCCN2CCCC2)Cc2cccs2)c1 | inconclusive [cytotoxic, partial curve] | – |
| Cc1[nH]c(-c2ccc(F)cc2)cc1C(=O)N1CCN(c2cccc(Cl)c2)CC1 | inconclusive [cytotoxic, single point] | – |
| COc1ccc(C(=O)/C=C/c2cn(CN3CCN(C)CC3)c3ccccc23)cc1 | inconclusive [cytotoxic, single point] | – |
| CC1CCc2c(sc3ncn4c(SCC(=O)NCc5ccco5)nnc4c23)C1 (stereo unspecified) | inactive | – |
| CC(=O)N1CC(=O)N=C1SCC(=O)Nc1nc(-c2ccccc2)c(-c2ccccc2)s1 | inconclusive [cytotoxic, partial curve] | – |
| CCCCC1=NN(C(=O)c2cocc2C)C(O)(C(F)(F)F)C1 (stereo unspecified) | inactive | – |
| O=C(Nc1ccccc1Cl)c1cc2ccccc2o/c1=N\O | inactive | – |
| CCOc1ccc2[nH]c(=O)c(CN(Cc3ccco3)Cc3nnnn3Cc3ccccc3)cc2c1 | inactive | – |
| Cc1sc(NC(=O)CN(Cc2ccc(F)cc2)C(=O)C(C)(C)C)c(C(N)=O)c1C | inactive | – |
| O=C(NCc1ccco1)C1CN(S(=O)(=O)c2ccccc2)CCN1S(=O)(=O)c1ccccc1 (stereo unspecified) | inactive | – |
| CCCN(CCC)Cc1c(C(=O)N/N=C/c2ccc(Br)cc2)nnn1-c1nonc1N | inconclusive [cytotoxic, single point] | – |
